Reference: PubChem BioAssay AID1460 (National Center for Advancing Translational Sciences (NCATS), 2008)
Out of some 270,000 compounds screened, about 5,800 (2.1%) were called active. Inconclusive results, whose numbers are uncertain, are shown with a selection of clear calls. Calls come from the whole dose curve; as a rule, active = well fitted inhibition curve with a large enough effect; inconclusive = small, poorly fitted or top-dose-only effect; inactive = flat fitted curve, though single readings scatter. Potencies beside an inconclusive call are fits to weak or partial responses and may not hold up.

target: Microtubule-associated protein tau (Homo sapiens) (UniProt P10636); test: qHTS for Inhibitors of Tau Fibril Formation, Thioflavin T Binding; settings: recombinant tau K18 P301L (four-repeat tau fragment), heparin-induced fibrillization, ThT fluorescence; series mostly up to 57.4 µM; note: nearly all actives have a fitted effect of over 55% in size
Sequence of UniProt P10636 (P10636 whole entry, looked up, the tested form may be a part): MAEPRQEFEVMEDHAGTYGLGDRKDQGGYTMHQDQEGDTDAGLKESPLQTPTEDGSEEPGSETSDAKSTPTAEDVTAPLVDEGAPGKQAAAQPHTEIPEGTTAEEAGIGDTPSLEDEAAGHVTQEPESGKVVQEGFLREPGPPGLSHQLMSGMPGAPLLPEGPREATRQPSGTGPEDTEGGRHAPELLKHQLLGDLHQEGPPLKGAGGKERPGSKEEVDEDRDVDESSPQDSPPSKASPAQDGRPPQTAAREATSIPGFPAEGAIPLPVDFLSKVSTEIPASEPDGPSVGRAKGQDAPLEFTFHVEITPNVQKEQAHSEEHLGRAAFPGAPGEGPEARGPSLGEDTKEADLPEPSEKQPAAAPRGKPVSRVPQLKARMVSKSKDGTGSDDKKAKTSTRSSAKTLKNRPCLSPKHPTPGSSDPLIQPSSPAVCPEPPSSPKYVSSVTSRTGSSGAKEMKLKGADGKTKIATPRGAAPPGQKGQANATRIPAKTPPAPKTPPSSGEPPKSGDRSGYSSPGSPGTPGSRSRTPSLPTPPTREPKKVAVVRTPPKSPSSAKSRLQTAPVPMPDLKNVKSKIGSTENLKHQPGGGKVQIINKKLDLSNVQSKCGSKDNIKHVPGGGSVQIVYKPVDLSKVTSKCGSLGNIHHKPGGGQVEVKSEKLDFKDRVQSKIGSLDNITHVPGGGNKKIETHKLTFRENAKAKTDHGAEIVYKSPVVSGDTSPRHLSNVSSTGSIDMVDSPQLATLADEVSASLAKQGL
Procedure, shortened: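 Aggregation was driven by heparin (20 uM final) acting on recombinant tau […] bearing P301L in 100 mM sodium acetate pH 7; fibrils were detected with Thioflavin T.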
Potency is the fitted concentration of half-maximal effect; tags give direction and shape of the fitted curve.

Compound | Potency
CCOC(=O)c1c(N)sc(C(=O)OCCOC)c1C | inactive
COc1ccc(N2C(N)=C(C#N)C(c3cc(CN4CCOCC4)cs3)C3=C2CCCC3=O)cc1 (stereo not given) | inactive
CC(C)c1ccc(OCC(=O)NCC(c2ccc(Cl)cc2)N2CCOCC2)cc1 (stereo not given) | inactive
O=[N+]([O-])c1c(NCCCO)cc(N2CCN(Cc3ccc4c(c3)OCO4)CC2)c2nonc12 | inconclusive: 17.8 µM [inhibitor, single point]
CCCn1c2c(c(O)c(C(=O)Nc3ncccc3C)c1=O)CCCC2 | inconclusive: 44.7 µM [inhibitor, single point]
COc1cccc(C(=O)NC2CC3CCCC(C2)N3CC(=O)Nc2ccc(N(C)C)cc2)c1 (stereo not given) | inactive
CCCCCOC(=O)c1c(N)n(CCOC)c2nc3ccccc3nc12 | inconclusive: 25.1 µM [inhibitor, single point]
C/C(CCC(C)C)=N\Nc1ccc(S(N)(=O)=O)cc1[N+](=O)[O-] | inconclusive: 15.8 µM [inhibitor, partial curve]
CC(C)c1ccc(NC(=O)Cn2c3ncccc3c(=O)n2-c2ccccc2)cc1 | inconclusive: 31.6 µM [inhibitor, single point]
CN1C(=O)/C(=C\c2cc(N=Nc3ccccc3)ccc2O)SC1=S | active: 3.55 µM
CCN1C(=O)CS/C1=C(\C#N)S(=O)(=O)c1ccccc1 | inconclusive: 11.2 µM [inhibitor, partial curve]
Cc1ccc(CNC(=O)c2nn(C)c3c2CSc2ccc(C)cc2-3)cc1 | inconclusive: 17.8 µM [inhibitor, partial curve]
Cc1ccc(S(=O)(=O)N(C(=O)c2ccco2)c2cc3sc(=O)oc3c3ccccc23)cc1 | active: 14.1 µM
Cc1cc(C)c[n+](-c2nc3ccccc3nc2C(=C=[N-])C#N)c1 | inconclusive: 22.4 µM [inhibitor, partial curve]
Cc1c(C(=O)Nc2cccc(-c3nc4ccccc4s3)c2)oc2ccc(F)cc12 | inconclusive: 1.12 µM [inhibitor, full curve, poor fit]
Cc1ccc(S(=O)(=O)c2nc(-c3ccc(F)cc3)oc2SCC(=O)NCC2CCCO2)cc1 (stereo not given) | inactive
Cc1cccn2c(=O)cc(COc3cccc(NC(=O)c4cccc(Cl)c4)c3)nc12 | inactive
Cc1cccc(-c2nnc(SCC(=O)N3CCCCC3)o2)c1 | inconclusive: 28.2 µM [inhibitor, single point]
Cc1c(NC(=O)c2ccc(COc3ccc4ccccc4c3)o2)c(=O)n(-c2ccccc2)n1C | inactive
CCn1c(=O)n(CC)c2cc(N3CCCC3)c(NC(=O)Nc3cc(C)cc(C)c3)cc21 | inconclusive: 14.1 µM [inhibitor, partial curve, poor fit]
O=[N+]([O-])c1ccc(C2Oc3ccccc3C3CC(c4ccccc4)=NN32)s1 (stereo not given) | active: 14.1 µM
CCN(CC)CCCNC(=O)CNC(=S)N(CCCN1CCOCC1)Cc1cccs1 | inactive
CCOC(=O)C1C(=O)C=C(c2ccc(NS(C)(=O)=O)cc2)CC1c1ccco1 (stereo not given) | inconclusive: 35.5 µM [inhibitor, partial curve]
CCCC(C)c1nnc(NC(=O)C(=O)OCC)s1 (stereo not given) | inconclusive: 44.7 µM [inhibitor, single point]

Compound | Potency
CC(C)(C)c1ccc(OCCON2C(=O)CCC2=O)c(Cl)c1 | inactive
CSc1nnc2n(-c3cccc(C)c3)c(=O)c3c4c(sc3n12)CCCC4 | inconclusive: 25.1 µM [inhibitor, single point]
Cc1sc(NC(=S)NC(=O)c2ccco2)c(C(N)=O)c1C | inconclusive: 6.31 µM [inhibitor, full curve]
CN1/C(=C\C=[N+](C)c2ccccc2)C(C)(C)c2ccccc21 | inconclusive: 14.1 µM [inhibitor, partial curve]
Fc1cccc(-c2cc3nc4c(c(NCc5ccco5)n3n2)CCCC4)c1 | inconclusive: 14.1 µM [inhibitor, partial curve]
O=Nc1c(O)n(Cc2ccc(Cl)c(Cl)c2)c2ccccc12 | inconclusive: 14.1 µM [inhibitor, partial curve]
CCOc1ccc(-c2nnc(NC(=O)c3ccc(OCC(C)C)c(OC)c3)o2)cc1 | inconclusive: 14.1 µM [inhibitor, partial curve, poor fit]
COc1ccccc1CNC(=O)c1sc2nc3n(c(=O)c2c1C)CCC3 | inconclusive: 10 µM [inhibitor, partial curve]
Cc1[nH]c2ccccc2c1NC(=O)CN1CCN(Cc2ccc3c(c2)OCO3)CC1 | inactive
CCOC(=O)C1CCCN(c2oc(-c3ccc(F)cc3)nc2C#N)C1 (stereo not given) | inactive
CCC(=O)Nc1ccc(Br)cn1 | inactive
Cc1cc(Cl)n2c(nc3ccccc32)c1C#N | inconclusive: 4.47 µM [inhibitor, partial curve, poor fit]
COc1ccc(Nc2cc(C)c3cc(NC(=O)Cc4c(F)cccc4Cl)ccc3n2)cc1 | inconclusive: 7.94 µM [inhibitor, partial curve]
Cc1ccc2nc(-c3ccc(NC(=O)COc4ccc(Cl)c(C)c4)cc3)sc2c1 | inconclusive: 3.98 µM [inhibitor, partial curve]
CCOC(=O)c1ccc(NC(=O)CCOc2ccc(OC)cc2)cc1 | inconclusive: 3.16 µM [inhibitor, full curve]
COC(=O)[C@@]1(Cc2ccc(F)cc2)[C@@H]2C(=CC(=O)[C@H]2CC(=O)C(=O)N(C)C)CN1C(=O)c1ccccc1 | inconclusive: 15.8 µM [inhibitor, partial curve, poor fit]
O=C(Nc1ccc(Cl)c(Cl)c1)Nc1ccccc1C(=O)O | inconclusive: 39.8 µM [activator, single point]
O=[N+]([O-])c1ccc(/C=N/N=C/c2ccc([N+](=O)[O-])o2)o1 | active: 12.6 µM
Cc1cc(C)c2nc(NC(=O)c3ccc(OCC4CCCO4)cc3)sc2c1 (stereo not given) | inactive
Cc1ccc(C)c(N2CCN(C(=O)c3ccc4[nH]c(C)c(C)c4c3)CC2)c1 | inconclusive: 10 µM [inhibitor, partial curve]
CCOC(=O)c1cnc2c(OC)cccc2c1Nc1ccc2c(c1)OCCO2 | inconclusive: 25.1 µM [inhibitor, partial curve]
O=C(CSC1CCCCC1)Nc1ccccc1Br | inactive
CCCC(CCC)C(=O)Nc1cccc(-c2cn3cccnc3n2)c1 | inactive
Oc1cccc(C(Nc2nccs2)c2ccc3cccnc3c2O)c1 (stereo not given) | inconclusive: 28.2 µM [inhibitor, partial curve, poor fit]

Compound | Potency
CC(=O)c1ccc(-c2ccc(-c3cc(=O)oc4c(C(C)C)ccc(C)c34)cc2)cc1 | inactive
CC1(C)CC(=O)C(C=Nc2ccc(O)c(N=CC3=C(O)CC(C)(C)CC3=O)c2)=C(O)C1 | active: 3.98 µM
Cc1cccc(N2CCN(C(=O)c3ccc(NC(=O)c4nsc5ccccc45)cc3)CC2C)c1 (stereo not given) | inconclusive: 22.4 µM [inhibitor, single point]
NC1(C(=O)O)C[C@H](C(=O)O)[C@H](C(=O)O)C1 (stereo not given in full) | inactive
N#C/C(=N\Nc1ccccc1)C(=N)N1CCCCCC1 | inconclusive: 15.8 µM [inhibitor, partial curve]
COC(=O)c1ccc(-c2ncc(-c3cccc4ccccc34)o2)cc1 | inconclusive: 1.78 µM [inhibitor, full curve]
CCn1c(SCc2ccccc2F)nc(=O)c2c(C(=O)OC)cc(C3CC3)nc21 | inconclusive: 28.2 µM [inhibitor, partial curve, poor fit]
COc1cccc(/C=C/c2ccc3ccccc3n2)c1OC(C)=O | inconclusive: 0.708 µM [inhibitor, full curve]
COCCCn1c(O)c(/C=C2\N=C(C#N)C(=Nc3ccc(C)cc3)O2)sc1=S | active: 11.2 µM
Cc1ccc2oc(Nc3nc(-c4ccccc4)cc(=O)[nH]3)nc2c1 | inconclusive: 5.01 µM [inhibitor, full curve, poor fit]
Nc1nc(N)c(N=Nc2ccc(C(=O)O)cc2)c(N)n1 | active: 14.1 µM
CCOc1ccc(NC(=O)CNS(=O)(=O)c2ccc(Br)s2)cc1 | inactive
N/C(Cc1cccc2ccccc12)=N\OC(=O)c1cccs1 | inconclusive: 28.2 µM [inhibitor, single point]
COc1ccc(NC(=O)c2cc(-c3ccccc3O)no2)cc1 | inconclusive: 14.1 µM [inhibitor, partial curve]
O=C(CCc1ccccc1)NNc1cc(N2CCCCC2)nc(N2CCCCC2)n1 | inconclusive: 2.51 µM [inhibitor, full curve]
CC1CN(C(=O)N2CCC(C(=O)NCc3ccco3)CC2)c2cc(Cl)ccc2O1 (stereo not given) | active: 31.6 µM
CCc1cc(C(=O)N=Nc2c(O)[nH]c3c(Br)cc(Br)cc23)c2ccccc2n1 | active: 7.08 µM
Cn1cccc1/C=N/NC(=O)c1cccc(OC(F)(F)C(F)F)c1 | inconclusive: 20 µM [inhibitor, single point]
COc1ccccc1CNC(=O)CN1C(=O)CCc2cc(S(=O)(=O)N3CCOCC3)ccc21 | inactive
O=C(Nc1ccc2nc(SCC(=O)N3CCCC3)sc2c1)c1ccccc1F | inconclusive: 2.82 µM [inhibitor, full curve]
COC(=O)c1c(NC(=O)CCCOc2ccccc2C)sc2c1CCC(C)C2 (stereo not given) | inconclusive: 5.62 µM [inhibitor, partial curve]
Cc1ccc(OCc2nc(-c3ccc(C(=O)NCCc4ccc(S(N)(=O)=O)cc4)cc3)oc2C)cc1 | inconclusive: 1.41 µM [inhibitor, full curve, poor fit]
